{"source": "paper PMC7617869", "about": "“Molecular glues that inhibit deubiquitylase activity and inflammatory signaling” (Nature Structural & Molecular Biology, 2025)", "key": {"[1]": {"target": "T1, BRISC (Homo sapiens, UniProt P46736+Q15018+Q9NXR7)", "T1 construct": "made in house; host or cells: Spodoptera frugiperda (Sf9) insect cells, MultiBac", "assay": "BRISC DUB activity assay (IQF K63-linked diubiquitin)", "assay_type": "biochemical", "experimental": "(§1) IQF assays were performed in DUB reaction buffer containing 50 mM HEPES–NaOH pH 7.0, 100 mM NaCl, 0.1 mg ml^−1 BSA, 1 mM DTT and 0.03% v/v Brij-35. […] The final concentration of BRISC WT, all BRISC mutants, HsBRISCΔLoop, MmBRISC and DrBRISCΔNΔC was 1 nM. Other enzymes were tested at the following concentrations: 5 nM ARISC (FL), 10 nM CfBRISCΔNΔC, 250 nM AMSH* (ref. [43]), 500 nM USP2 and 1 μM trypsin (Sigma, 9002-07-7). For Michaelis–Menten experiments, 1 nM BRISC with 0–1 μM IQF K63-linked diubiquitin substrate was used. Michaelis–Menten analyses and Lineweaver–Burk plots were calculated using GraphPad Prism (version 9.0).\nTo assess enzymatic activity, BRISC complexes were diluted to concentrations between 1 nM and 50 nM. […] Then, 20-μl enzyme reactions were carried out in 384-well black flat-bottom low-flange plates (Corning, 35373). DUB activity was measured using IQF K63-linked diubiquitin (LifeSensors, DU6303) at 50 nM. Cleaved diubiquitin was monitored by measuring fluorescence intensity (excitation, 544 nm; emission, 575 nm; dichroic mirror, 560 nm). Fluorescence intensity was measured every minute for 30 min at 30 °C. Fluorescence intensity units were plotted against time to generate a linear reaction progress curve, where the initial velocity (V0) corresponds to the gradient of the curve (typically achieved within 15 min). IC50 values were calculated using the GraphPad Prism (version 9.0) built-in dose–response equation for inhibitor concentration versus response (variable slope)."}, "[2]": {"target": "T1, BRISC", "assay": "Michaelis–Menten analysis of BRISC inhibition", "assay_type": "biochemical", "details": "di-Ub-TAMRA 1000 nM", "experimental": "as §1"}}, "note": "“And” between values parts separate entries of the source, which are not always exact repeats. Equal values may be shown once. The source gives many values for each of these; only a part stands here."}
{"smiles": "O=C(NC1C2CNCC21)c1nn(C(=O)c2c(Cl)cccc2Cl)cc1NC(=O)c1c(Cl)cccc1Cl", "note": "(stereo not drawn) [FX-171-C]", "values": [{"measurement": "Normalised V0", "setting": "[1]; BRISC WT, FX-171-C 0.0035 μM", "result": "0.9562 and 0.7724 and 0.9883"}, {"measurement": "Normalised V0", "setting": "[1]; BRISC WT, FX-171-C 0.035 μM", "result": "0.9974 and 0.792 and 0.9381"}, {"measurement": "Normalised V0", "setting": "[1]; BRISC WT, FX-171-C 0.35 μM", "result": "0.7232 and 0.6751"}, {"measurement": "Normalised V0", "setting": "[1]; BRISC WT, FX-171-C 6.25 μM", "result": "0.161 and 0.1849"}, {"measurement": "Normalised V0", "setting": "[1]; Fig. 1g, BRISC, FX-171-C 0.013 μM", "result": "0.9661 and 1.259 and 1.028 and 1.106 and 0.9509 and 0.8874"}, {"measurement": "Normalised V0", "setting": "[1]; Fig. 1g, BRISC, FX-171-C 0.02 μM", "result": "0.8164 and 1.359 and 1.027"}, {"measurement": "Normalised V0", "setting": "[1]; Fig. 1g, BRISC, FX-171-C 0.0399999 μM", "result": "0.8327 and 1.212 and 1.032"}, {"measurement": "Normalised V0", "setting": "[1]; Fig. 1g, BRISC, FX-171-C 0.0599997 μM", "result": "1.179 and 1.007"}, {"measurement": "Normalised V0", "setting": "[1]; Fig. 1g, BRISC, FX-171-C 19.96 μM", "result": "0.1876 and 0.174 and 0.161"}, {"measurement": "Normalised V0", "setting": "[1]; Fig. 1g, BRISC, FX-171-C 31.4999 μM", "result": "0.1887 and 0.2421 and 0.2131"}, {"measurement": "Normalised V0", "setting": "[1]; Fig. 1g, BRISC, FX-171-C 79.7601 μM", "result": "0.2227 and 0.2164 and 0.1439"}, {"measurement": "Normalised V0", "setting": "[1]; Fig. 1g, BRISC, FX-171-C 125.99 μM", "result": "0.1622 and 0.2082 and 0.2077"}, {"measurement": "Initial velocity (FU/min)", "setting": "[2]; inhibitor 3.12 μM", "result": "979 FU/min and 990.8 FU/min"}, {"measurement": "Initial velocity (FU/min)", "setting": "[2]; inhibitor 12.5 μM", "result": "493.9 FU/min and 641.6 FU/min and 679 FU/min"}]}
{"smiles": "O=C(NC1CCNCC1)c1nn(C(=O)c2c(Cl)cccc2Cl)cc1NC(=O)c1c(Cl)cccc1Cl", "note": "[JMS-175-2]", "values": [{"measurement": "Normalised V0", "setting": "[1]; Fig. 1e, BRISC, JMS-175-2 0.013 μM", "result": "0.9583 and 0.7384 and 1.046 and 0.967 and 0.8595 and 0.8402"}, {"measurement": "Normalised V0", "setting": "[1]; Fig. 1e, BRISC, JMS-175-2 0.02 μM", "result": "0.8771 and 0.8197 and 1.004"}, {"measurement": "Normalised V0", "setting": "[1]; Fig. 1e, BRISC, JMS-175-2 0.0399999 μM", "result": "1.299 and 0.7892 and 1.03"}, {"measurement": "Normalised V0", "setting": "[1]; Fig. 1e, BRISC, JMS-175-2 0.0599997 μM", "result": "0.839 and 0.6819 and 0.9433"}, {"measurement": "Normalised V0", "setting": "[1]; Fig. 1e, BRISC, JMS-175-2 0.0799994 μM", "result": "0.9097 and 0.9012 and 0.9628"}, {"measurement": "Normalised V0", "setting": "[1]; Fig. 1e, BRISC, JMS-175-2 0.119998 μM", "result": "1.013 and 0.9179 and 1.054"}, {"measurement": "Normalised V0", "setting": "[1]; Fig. 1e, BRISC, JMS-175-2 0.199996 μM", "result": "1.253 and 0.7708 and 1.101"}, {"measurement": "Normalised V0", "setting": "[1]; Fig. 1e, BRISC, JMS-175-2 0.499975 μM", "result": "0.5936 and 0.7022 and 0.9756"}, {"measurement": "Normalised V0", "setting": "[1]; Fig. 1e, BRISC, JMS-175-2 0.799936 μM", "result": "0.9296 and 0.6017 and 0.8518"}, {"measurement": "Normalised V0", "setting": "[1]; Fig. 1e, BRISC, JMS-175-2 1.9996 μM", "result": 0.6268}, {"measurement": "Normalised V0", "setting": "[1]; Fig. 1e, BRISC, JMS-175-2 19.96 μM", "result": "0.3284 and 0.5166 and 0.3249"}, {"measurement": "Normalised V0", "setting": "[1]; Fig. 1e, BRISC, JMS-175-2 50.147 μM", "result": "0.2621 and 0.1377 and 0.1733"}, {"measurement": "Normalised V0", "setting": "[1]; Fig. 1e, BRISC, JMS-175-2 79.7601 μM", "result": "0.2164 and 0.1356 and 0.1726"}]}
